{"source": "PubChem BioAssay AID1159614", "about": "(National Center for Advancing Translational Sciences (NCATS), 2016)", "note": "About 65 (0.1%) of roughly 45,000 compounds were called active. Calls follow the shape of the dose curve; as a rule, active = well fitted activation curve with a large enough effect; inconclusive = small, poorly fitted or top-dose-only effect; inactive = no such curve, though single readings can be large or run the other way. Some of the results follow.", "data": [{"target": "Galactocerebrosidase (Homo sapiens) (UniProt P54803)", "sequence (P54803 whole entry, looked up)": "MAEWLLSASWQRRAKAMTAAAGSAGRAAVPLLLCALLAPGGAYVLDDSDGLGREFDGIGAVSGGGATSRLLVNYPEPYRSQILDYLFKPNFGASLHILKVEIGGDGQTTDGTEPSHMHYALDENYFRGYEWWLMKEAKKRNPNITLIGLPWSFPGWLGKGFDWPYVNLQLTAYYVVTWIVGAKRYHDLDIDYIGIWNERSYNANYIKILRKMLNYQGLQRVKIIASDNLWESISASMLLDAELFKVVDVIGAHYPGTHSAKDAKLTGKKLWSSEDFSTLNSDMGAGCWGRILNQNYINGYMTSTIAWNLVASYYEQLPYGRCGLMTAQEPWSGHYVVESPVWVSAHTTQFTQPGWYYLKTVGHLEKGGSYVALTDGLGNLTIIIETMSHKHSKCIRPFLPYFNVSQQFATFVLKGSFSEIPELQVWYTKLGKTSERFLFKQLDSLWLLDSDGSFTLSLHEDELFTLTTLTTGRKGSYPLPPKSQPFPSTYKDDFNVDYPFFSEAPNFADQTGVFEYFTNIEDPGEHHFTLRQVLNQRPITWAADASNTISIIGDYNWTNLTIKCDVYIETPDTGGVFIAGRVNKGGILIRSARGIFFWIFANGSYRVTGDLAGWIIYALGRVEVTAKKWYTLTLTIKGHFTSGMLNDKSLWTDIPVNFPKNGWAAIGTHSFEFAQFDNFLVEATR", "assay": "A Novel Cell-Based Assay to Identify Small Molecules for B -Galactocerebrosidase; also: 0% is about no effect; nearly all actives have a fitted effect of over 65% in size", "conditions": "145M-Twi-hGALC-G270D cells (Twitcher mouse brain line with human GALC G270D), HMU-beta-Gal fluorescence, 48 h; series mostly up to 57.5 µM; activation: at the top concentration", "outline": "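Mutant human GALC (G270D), stably expressed in a Twitcher mouse brain cell line lacking endogenous GALC, is measured in live-treated cells via 6-hexadecanoylamino-4-methylumbelliferyl-β-galactoside hydrolysis (0.1 mM final, pH 5.2) with fluorescent detection.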", "values": [{"compound": "O=C(CCC1N=C2c3ccccc3N=C(SCC(=O)Nc3ccc(F)cc3)N2C1=O)NCc1ccco1", "note": "(configuration not stated)", "activation": "inactive: -17.5%"}, {"compound": "COc1cc(Nc2nc(SCC(=O)c3ccc(Cl)c(Cl)c3)nc3ccccc23)cc(OC)c1", "activation": "inactive: -8.75%"}, {"compound": "Nc1nn(-c2ccccc2)nc1C(=O)OCc1c(F)cccc1Cl", "activation": "inactive: 3.56%"}, {"compound": "Cc1ccc(N(Cc2cccs2)C(=O)c2ccco2)cc1", "activation": "inactive: 7.5%"}, {"compound": "CC(C)N(C(=O)Cn1cc(S(=O)(=O)Cc2ccc(Cl)cc2)c2ccccc21)C(C)C", "activation": "inactive: -15.4%"}, {"compound": "COc1ccc(NC(=O)CC2Nc3ccccc3NC2=O)cc1", "note": "(configuration not stated)", "activation": "inactive: -6.24%"}, {"compound": "Cc1cc(C(=O)NCc2ccccc2)c2c(C)nn(-c3cccc(F)c3)c2n1", "activation": "inactive: -2.97%"}, {"compound": "COc1ccc(Nc2nn(-c3ccc(OC(F)(F)F)cc3)nc2C(C)=O)cc1", "activation": "inactive: -13.7%"}, {"compound": "Cc1ccc(CNC(=O)c2ccc(CS(=O)(=O)Cc3ccc(C)cc3)o2)cc1", "activation": "inactive: 3.23%"}, {"compound": "Cc1nn(-c2ccccc2)c2c1N(CC(=O)N1CCN(c3ccccc3F)CC1)C(=O)CS2", "activation": "inactive: -3.95%"}, {"compound": "COc1ccccc1Nc1ncnc2scc(-c3ccc(F)cc3)c12", "activation": "inactive: -24.2%"}, {"compound": "Cc1ccc(CNc2ccc3cc(S(=O)(=O)N4CCCCC4)ccc3n2)cc1", "activation": "inactive: -45.3%"}, {"compound": "COc1ccc(OC)c(NC(=O)c2ccc3c(Cl)c4c(nc3c2)CCCC4)c1", "activation": "inactive: -6.42%"}, {"compound": "COc1cc(OC)c(NC(=O)N2CCC(CN3CCCC3)CC2)cc1Cl", "activation": "inactive: -8.66%"}, {"compound": "CCOC(=O)c1ccc(Nc2nn3c(=O)c4ccccc4nc3s2)cc1", "activation": "inactive: -23.9%"}, {"compound": "CCCCN(C)C(=O)Cn1cnc2sc(C)c(S(=O)(=O)N3CCC(C)CC3)c2c1=O", "activation": "inactive: -14.2%"}, {"compound": "CCCCN(CCCNC(=O)c1cc(Nc2ccccc2OC)nc2ccccc12)c1ccccc1", "activation": "inactive: -7.22%"}, {"compound": "COc1ccc(C2(CNC(=O)C(=O)Nc3ccccc3C)CCCC2)cc1OC", "activation": "inactive: -5.47%"}, {"compound": "COc1ccc(CNC(=O)c2cccn2-c2nnc(N3CCCC3)s2)c(OC)c1", "activation": "inactive: -8.71%"}, {"compound": "Cc1ccc(S(=O)(=O)c2nc(-c3ccc(F)cc3)oc2N2CCN(c3ccccc3)CC2)cc1", "activation": "inactive: -18.9%"}, {"compound": "CCN(CC)c1ccc(C2Nc3ccccc3-c3cc(C)nn32)cc1", "note": "(configuration not stated)", "activation": "inactive: -19.8%"}, {"compound": "Cc1ccc(NC(=O)C2CCCN(S(=O)(=O)c3c(C)noc3C)C2)cc1", "note": "(configuration not stated)", "activation": "inactive: 6.17%"}, {"compound": "Cc1cccc(-n2c(=O)c3c4c(sc3n3c(C)nnc23)CCCC4)c1", "activation": "inactive: -8.69%"}, {"compound": "COc1ccc(NC(=O)c2oc3ccccc3c2NC(=O)C2CCCCC2)c(OC)c1", "activation": "inactive: -3.77%"}, {"compound": "Nc1c(C(=O)Nc2ccccc2)sc2nc3c(cc12)CN(Cc1ccccc1)CC3", "activation": "inactive: 1.05%"}, {"compound": "Clc1ccc(-n2c(Cc3ccccc3)nnc2SCc2nc(-c3cccs3)no2)cc1", "activation": "inactive: -8.38%"}, {"compound": "Cc1cc(C)c(/C=C/c2onc(C)c2S(=O)(=O)N2CCC(C(=O)NCCc3ccccc3)CC2)c(C)c1", "activation": "inactive: -11.1%"}]}]}
